Laboratory results taken from PubChem BioAssay AID485344 (National Center for Advancing Translational Sciences (NCATS), 2010).
The campaign covered roughly 340,000 compounds. About 6,900 (2%) were called active. Cut-off read from the data, not from the text of the source: active = inhibition above about 30%; inactive = below that, where a call was filed. The list shows a part of the results, in another mix than the full data. Entries without a call were filed so in the source.

Each compound was assayed against D(2) dopamine receptor (Homo sapiens) (UniProt P14416) (assay: HTS Assay for Allosteric Antagonists of the Human D2 Dopamine Receptor: Primary Screen for Antagonists). Conditions: HEK293 TREx D2 cells, calcium flux, dopamine EC80; at 10 µM; stronger effect = higher value.
In short: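 Inhibition of EC80 dopamine-driven calcium flux, recorded kinetically, defines activity here; cells are a tetracycline-induced HEK293 T-REx line expressing force-coupled D2.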
Note: 0% is about no effect.

Chain of UniProt P14416 (P14416 whole entry, looked up): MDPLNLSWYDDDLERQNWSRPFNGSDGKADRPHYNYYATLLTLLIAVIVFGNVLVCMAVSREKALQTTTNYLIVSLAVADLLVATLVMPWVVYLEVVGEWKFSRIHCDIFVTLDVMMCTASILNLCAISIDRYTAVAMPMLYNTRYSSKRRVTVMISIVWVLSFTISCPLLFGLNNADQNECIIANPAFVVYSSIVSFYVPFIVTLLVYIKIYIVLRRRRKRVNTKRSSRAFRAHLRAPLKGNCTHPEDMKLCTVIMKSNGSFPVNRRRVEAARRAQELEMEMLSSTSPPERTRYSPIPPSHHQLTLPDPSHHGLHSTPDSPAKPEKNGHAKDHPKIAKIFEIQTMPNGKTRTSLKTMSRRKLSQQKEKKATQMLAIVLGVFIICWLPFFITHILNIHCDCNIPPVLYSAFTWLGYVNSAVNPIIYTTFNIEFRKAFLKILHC

Row | Structure (SMILES) | inhibition
1 | CCOc1ccccc1NC(=O)C1CCCN(c2ncnc3onc(-c4ccc(F)cc4)c23)C1 (stereo not drawn) | 14.5%
2 | CC(=O)OCc1cnc(C)c2oc(=O)c(C(=O)Nc3cc(F)ccc3C)cc12 | 17.9%
3 | O=C(c1ccc([N+](=O)[O-])cc1)N(Cc1ccco1)c1ccccn1 | -13.1%
4 | NC(=O)CN1C(=O)C2(SCC(=O)N2c2cccc(F)c2)c2ccccc21 (stereo not drawn) | -3.58%
5 | COc1ccc(C2C(C(=O)Nc3ccc(C)cc3C)=C(C)Nc3nc(SC)nn32)cc1OC (stereo not drawn) | -23.5%
6 | Cc1ccc(NC(=O)CSc2nnc(COc3ccc(Cl)cc3)o2)cc1 | 16.4%
7 | CCSc1nnc(NC(=O)c2csc3c2CCCC3)s1 | active: 40.2%
8 | CCc1ccc(CN(Cc2ccco2)C(=O)COc2ccccc2Cl)cc1 | 7.4%
9 | Cc1ccc(-c2nnc(Nc3cccc(Br)c3)c3ccccc23)cc1S(=O)(=O)N1CCCCC1 | 5.3%
10 | Cc1cccc(-n2c(=O)c3c(c4cc(C)ccc4n3C)n(C)c2=O)c1 | 0.729%
11 | Cc1ccc(C)c(C(=O)CSc2nc(-c3ccccc3)nc3c2CCCC3)c1 | -14.8%
12 | Cc1cc2c(cc1S(=O)(=O)CCC(=O)N(C)C1CCCCC1)OCC(=O)N2 | -5.57%
13 | COCCN(Cc1ccco1)C(=O)Cn1ncc2c([nH]c3ccccc32)c1=O | -2.97%
14 | CN(c1ncnc2c1c(-c1ccccc1)cn2-c1cccc(Cl)c1)C1CCCCC1 | -23.4%
15 | Cc1ccc(-c2nnn3c2nc(NCCc2ccccc2)c2ccccc23)cc1 | 6.05%
16 | COc1cccc(NC(=O)CCc2nc(-c3ccc(C(C)(C)C)cc3)no2)c1 | 2.06%
17 | COC(=O)c1cc2oc(C)cc2n1Cc1cc(C)ccc1C | -4.62%
18 | CCOc1ccc(NC(=O)CSc2nc(-c3cccc(Cl)c3)nc3c2Cc2c(CO)cnc(C)c2O3)cc1 | 14.2%
19 | Cc1ccc(C)c(NC(=O)Cn2ncc3c([nH]c4ccccc43)c2=O)c1 | 0.0342%
20 | Cc1ccc(C)c(NC(=O)CSc2c(C)cnc3c2c(=O)n(C)c(=O)n3C)c1 | -11.3%
21 | CCOc1ccc(OCC)c(NS(=O)(=O)c2c(C)[nH]c(=O)[nH]c2=O)c1 | 1.18%
22 | O=C(Cn1cnc2nc3c(cc2c1=O)CCCC3)N1CCN(c2cccc(C(F)(F)F)c2)CC1 | 23.4%
23 | O=C(CCCCCN1C(=O)c2ccccc2C1=O)Nc1ccc(F)cc1 | active: 34.5%
24 | CCC(=O)N1c2ccccc2CC1C(=O)N1CCN(c2cccc(OC)c2)CC1 (stereo not drawn) | -15.9%
25 | CCc1ccc(NC(=O)Cn2ccn(-c3ccc(OC)cc3)c(=O)c2=O)cc1 | -22.4%

Row | Structure (SMILES) | inhibition
26 | CC(=O)c1ccc(S(=O)(=O)Nc2ccc(-c3ccc(N4CCCCC4)nn3)cc2)cc1 | 8.37%
27 | COc1ccc(Cn2c(C(=O)O)c(CNC3CCCC3)c3ccc(C)cc32)cc1 | 14%
28 | COc1ccc(CCNC(=O)c2csc3c2CCCCC3)c(OC)c1 | -16.5%
29 | CCC1CCCCN1Cc1c(O)ccc2c(=O)c(Oc3ccccc3Cl)c(C(F)(F)F)oc12 (stereo not drawn) | -6.15%
30 | Cc1cccn2c3c(c(=O)nc12)C(c1cccc(F)c1)CC(=O)N3 (stereo not drawn) | -5.33%
31 | Cc1oc2ncn(CC(C)C)c(=O)c2c1C(=O)NCCc1ccc(Cl)cc1 | -12.7%
32 | Cc1ccc(CNC(=O)c2ccc3c(c2)CCN3S(=O)(=O)c2ccccc2)cc1 | 8.32%
33 | CCc1nc2ccc(C(=O)NCc3ccc(OC)c(OC)c3)cc2nc1CC | -23.9%
34 | N#CCC(=O)Nc1ccc(C(=O)OCC(=O)NCc2ccc3c(c2)OCO3)cc1 | active: 44%
35 | CC1(C)Cc2c(c(N3CCOCC3)nc3sc(C(=O)Nc4ccc(Cl)cc4)c(N)c23)CO1 | 1.92%
36 | Cc1ccc2c(CC(=O)Nc3cccc(C(F)(F)F)c3)coc2c1 | 12.5%
37 | Cc1ccc2c(c1)-c1onc(C(=O)N(C)c3cccc(C(F)(F)F)c3)c1CO2 | 11.2%
38 | Cc1ccccc1CNC(=O)Cn1c(C)c2cnn(-c3ccccc3)c(=O)c2c1C | 0.149%
39 | CCOC(=O)COc1ccc(/C=C(\C#N)c2nc3ccc(C)cc3[nH]2)cc1OC | 7.35%
40 | CCOC(=O)c1sc(N2C(=O)c3oc4ccccc4c(=O)c3C2c2ccc(C(C)(C)C)cc2)nc1C (stereo not drawn) | 5.51%
41 | CCCCOc1ccc(C(=O)Nc2cc(-c3ccc(C)cc3)no2)cc1 | 16.4%
42 | Cc1nn(-c2ccccc2)c2nc(C3CC3)cc(C(=O)Nc3ccc(F)cc3)c12 | 5.03%
43 | O=C(Nc1ccc(OCc2cc(=O)n3c4c(sc3n2)CCCC4)cc1)c1cccc(F)c1 | -7.59%
44 | CCc1c(C)sc2c1CCN(Cc1ccccc1)C2c1ccccc1 (stereo not drawn) | -2.36%
45 | O=C(CCn1cnc2onc(-c3ccc(F)cc3)c2c1=O)Nc1ccc(F)c(Cl)c1 | 3.07%
46 | Cc1ccc(NC(=O)CN(C)S(=O)(=O)c2ccc3c(c2)n(C)c(=O)c(=O)n3C)cc1F | 3.44%
47 | COc1cc(C(=O)NCCc2ccc(S(=O)(=O)N3CCCC3)cc2)cc(OC)c1OC | active: 58%
48 | Cn1c(SCC(=O)NCc2ccc(F)cc2)ncc(C(=O)Nc2ccccc2)c1=O | active: 32.1%
49 | CCOC(=O)C1CCN(CC(=O)Nc2cc(C)c3c(=O)oc4ccccc4c3n2)CC1 | -4.86%
50 | Cc1ccccc1S(=O)Cc1ccc(C(=O)NC2CCN(Cc3ccccc3)CC2)o1 (stereo not drawn) | active: 43.9%

Row | Structure (SMILES) | inhibition
51 | Cc1cn2c(=O)cc(COc3cccc(NC(=O)c4ccc(C(C)(C)C)cc4)c3)nc2s1 | 19.7%
52 | CCOc1ccc(NC(=O)c2c(C)nn(-c3ccc(F)cc3)c2-n2cccc2)cc1 | 1.61%
53 | C=CCc1ccccc1OCCSc1nc(-c2cccs2)nc2cc(=O)[nH]n12 | 0.958%
54 | O/N=C1/CCc2nonc2/C1=N/O | active: 39.1%
55 | COc1cc(CC(NC(C)=O)C(=O)NC2CCN(C(=O)C3CC3)CC2)cc(OC)c1 (stereo not drawn) | active: 32.5%
56 | O=C1Nc2ccccc2Oc2cc(Oc3cccc(Cl)c3)ccc21 | -4.49%
57 | Cc1nc2nc(SCC(=O)N(C)Cc3ccccc3)nn2c(C)c1Cc1ccccc1Cl | 8.07%
58 | Cc1cc(C)c(S(=O)(=O)N2CCC(n3c(C(F)(F)F)nc4cccnc43)CC2)c(C)c1 | 3.11%
59 | Fc1ccc(N2CCN(c3nc4ccccc4c4nc(-c5cccnc5)nn34)CC2)cc1 | 2.54%
60 | Cc1c(Cl)cccc1-c1ccc(CNCCCSc2nnnn2C)o1 | -28.4%
61 | CCCCNC(=S)N/N=C/c1ccc(C#N)cc1 | active: 39.3%
62 | CCCCN(C)CCNC(=O)C1CCCN(S(=O)(=O)c2cccc3nsnc23)C1 (stereo not drawn) | -20.4%
63 | Cc1nnc(N2CCCC(C(=O)NCc3ccccc3)C2)c2nn(-c3ccccc3)c(C)c12 (stereo not drawn) | -4.6%
64 | CN1CCN(C(=O)CCN2C(=O)/C(=C/c3cccc(Br)c3)SC2=S)CC1 | active: 31%
65 | COC(=O)c1sc2cccc(F)c2c1S(=O)(=O)N1CCN(c2cccc(OC)c2)CC1 | -5.97%
66 | CCOC(=O)c1cc(-c2ccccc2)n(CCC(=O)NCc2ccccc2Cl)c1C | -0.17%
67 | COc1ccc(Nc2nc3ccccc3nc2NS(=O)(=O)c2ccc(C)cc2)c(OC)c1 | 19.7%
68 | COc1ccccc1/C=C/CN1CCCC(CCC(=O)NCc2ccc(F)c(F)c2)C1 (stereo not drawn) | active: 33%
69 | COc1ccc(Cl)cc1NC(=O)CSc1nnc(CN2CCOCC2)n1-c1ccc(Cl)cc1 | active: 75.9%
70 | CCN(CC)c1cc(C)c2cc(NC(=O)c3cccc(OC)c3OC)ccc2n1 | -1.16%
71 | O=C(COc1ccccc1F)OCc1cc(=O)n2nc(C3CCCCC3)sc2n1 | -0.761%
72 | COc1cccc2cc(S(=O)(=O)c3ccc(F)c(C)c3)c(=O)oc12 | -2.89%
73 | CC(=O)Nc1ccc(NC(=O)c2cc(=O)c3ccccc3o2)cc1 | -3.21%
74 | Cc1c(Cl)c(C(=O)NNC(=S)NCc2ccco2)nn1C | active: 34.9%
75 | COc1ccc(OCc2ccc(-c3nc(C#N)c(N4CCN(c5ccccc5)CC4)o3)o2)cc1 | -13.7%

Row | Structure (SMILES) | inhibition
76 | Cc1cc(-c2ccc(C)c(S(=O)(=O)Nc3cccc(C)n3)c2)on1 | -9.91%
77 | Cc1ccccc1-c1cc(C(=O)NCc2cccs2)n(CC2CC(c3cccnc3)=NO2)n1 (stereo not drawn) | active: 37.9%
78 | CCc1ccc(-n2nnc(-c3nsc(NC(=O)c4ccccc4Cl)n3)c2C)cc1 | 22.1%
79 | COc1ccc(-c2nc(-c3cc4cc(Br)ccc4oc3=O)cs2)cc1 | 5.68%
80 | COc1ccccc1N1CCN(c2nc3ccccc3n3cnnc23)CC1 | 1.16%
81 | O=C(CCn1nc(-c2ccccc2)c2ccccc2c1=O)Nc1ccccc1 | 8.81%
82 | Cc1cccc(C)c1NC(=O)Nc1csc2c1CCCC2 | 7.5%
83 | Cc1ccc2nc(N(CCCN(C)C)C(=O)c3ccco3)sc2c1 | -26%
84 | O=C(Nc1ccc(Br)cc1)c1ccc(F)c(S(=O)(=O)NC2CCCCCC2)c1 | -7.25%
85 | CC1(C)Cc2c(ccc3ccccc23)/C(=C/C(=O)N2CCCCC2)N1 | active: 32.7%
86 | Cc1ccccc1-c1nc(SCC(=O)NCc2ccc(F)cc2)c2c(=O)n(C)c(=O)n(C)c2n1 | -16.7%
87 | COc1ccc(NC(=O)c2ccco2)cc1NC(=O)COc1cccc(C)c1C | 3.29%
88 | CCc1ccc(NC(=O)CN(C)S(=O)(=O)c2ccc3c(c2)c(=O)n(C)c(=O)n3C)cc1 | -2.81%
89 | COc1ccc(C)cc1NC(=O)COc1cc(=O)n(C)c2ccccc12 | 8.04%
90 | Cc1ccc(NC(=O)c2nnn(Cc3ccccc3)c2N)cc1C | -5.16%
91 | CCSc1nnc(NC(=O)c2c(-c3ccccc3Cl)noc2C)s1 | active: 109%
92 | CC1CN(C(=O)Nc2ccc(C(=O)NCc3ccccc3F)cc2)c2ccccc2S1 (stereo not drawn) | 11.4%
93 | COC(=O)c1ccc(NC(=O)CSc2n[nH]c(-c3ccccc3)n2)cc1 | -14.4%
94 | CCN1CCN(c2nc3c(C)cccn3c(=O)c2/C=C(\C#N)S(=O)(=O)c2ccccc2)CC1 | active: 37.3%
95 | c1cnc(N2CCN(Cc3ccc4c(c3)OCO4)CC2)cn1 | active: 89.9%
96 | Cc1ccc(C)c(N2C(=O)N(Cc3ccccc3C)c3ccccc3S2(=O)=O)c1 | 5.13%
97 | O=C(Nc1nc2c(Cl)cccc2s1)c1ccc(S(=O)(=O)N2CCc3ccccc32)cc1 | -0.419%
98 | O=C(NC(=S)Nc1ccc2oc(=O)ccc2c1)c1cccc(Cl)c1 | active: 30.4%
